For this experiment, the target named is T1, p105, Nluc- or YFP-tagged (BRET) (UniProt P19838 1-968).
T1 construct: also called NFκB1(p105/p50)
T1 sequence (looked up): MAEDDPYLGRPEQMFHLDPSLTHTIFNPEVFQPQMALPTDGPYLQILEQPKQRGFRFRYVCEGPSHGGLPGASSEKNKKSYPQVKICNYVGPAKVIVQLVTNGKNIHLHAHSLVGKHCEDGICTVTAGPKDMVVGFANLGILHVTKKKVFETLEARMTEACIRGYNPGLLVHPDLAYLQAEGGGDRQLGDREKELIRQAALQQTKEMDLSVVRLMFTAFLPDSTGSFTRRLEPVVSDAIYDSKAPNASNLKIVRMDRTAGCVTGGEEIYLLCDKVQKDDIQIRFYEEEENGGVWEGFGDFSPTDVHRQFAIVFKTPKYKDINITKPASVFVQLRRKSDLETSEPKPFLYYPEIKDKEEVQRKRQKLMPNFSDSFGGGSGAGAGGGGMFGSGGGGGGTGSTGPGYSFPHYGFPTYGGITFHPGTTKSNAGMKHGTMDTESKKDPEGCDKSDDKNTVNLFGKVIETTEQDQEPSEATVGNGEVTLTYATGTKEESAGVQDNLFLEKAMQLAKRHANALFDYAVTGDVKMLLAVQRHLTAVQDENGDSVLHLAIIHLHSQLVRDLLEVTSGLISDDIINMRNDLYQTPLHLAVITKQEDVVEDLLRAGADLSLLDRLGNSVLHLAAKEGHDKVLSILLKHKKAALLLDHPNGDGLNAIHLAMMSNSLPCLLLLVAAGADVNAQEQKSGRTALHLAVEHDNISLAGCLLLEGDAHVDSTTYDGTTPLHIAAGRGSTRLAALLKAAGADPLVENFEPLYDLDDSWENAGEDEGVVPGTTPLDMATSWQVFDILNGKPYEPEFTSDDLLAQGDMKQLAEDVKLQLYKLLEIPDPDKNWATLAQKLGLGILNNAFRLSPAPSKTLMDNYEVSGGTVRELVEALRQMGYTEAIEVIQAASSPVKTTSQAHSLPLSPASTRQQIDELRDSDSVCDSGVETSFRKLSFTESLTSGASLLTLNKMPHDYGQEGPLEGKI
Put plainly: FRET or BRET. The note with it: partners not purified. In general terms: Bioluminescence resonance energy transfer reports proximity on the nanometre scale.

B1: TPL2, Nluc- or YFP-tagged (BRET) (natural protein)
chain: not shown
notes: also called MAP3K8
In turn, B1 yielded a netBRET of less than 0.05.

The values are drawn from PMC5679641 (PLoS Pathogens, 2017).
